Source: PubChem BioAssay AID328 (DTP/NCI, 2004)
Several values for one entry are separate records, joined by “and”; a condition that tells them apart may be missing. Equal values may be shown once. This continues a long series; more values of the same kind are listed elsewhere. Toxic doses and inconclusive results are not listed.

Test system: BDF1 mice, P388 leukemia ip, median survival T/C
Experiment: NCI In Vivo Anticancer Drug Screen. Data for tumor model P388 Leukemia (intraperitoneal) in B6D2F1 (BDF1) mice
Details: endpoint: median survival time, higher = longer survival
Procedure, shortened: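 Mice carrying the transplantable tumour receive compound or vehicle. Survival is followed in each arm, and the treated measure is divided by the vehicle measure.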

`COc1cccc2c1C(=O)c1c(O)c3c(c(O)c1C2=O)C[C@@](O)(C(=O)CO)C[C@@H]3OC1CC(N)C(O)C(C)O1` (stereo not given in full) was tested, and the T/C (dose: 0.2 mg/kg/injection, schedule: Q01DX009 (ip), vehicle: water) was 168 % of control, the T/C (dose: 0.25 mg/kg/injection, schedule: Q01DX009 (ip), vehicle: saline) was 158 % of control and the T/C (dose: 0.39 mg/kg/injection, schedule: Q01DX009 (ip), vehicle: water) was 184 % of control. The T/C (dose: 0.5 mg/kg/injection, schedule: Q03HX008 (ip), vehicle: water) was 177 % of control, the T/C (dose: 0.5 mg/kg/injection, schedule: Q06HX004 (ip), vehicle: water) was 163 % of control and the T/C (dose: 0.65 mg/kg/injection, schedule: Q01DX009 (ip), vehicle: saline) was 172 % of control and 183 % of control. For the same compound, the T/C (dose: 0.65 mg/kg/injection, schedule: Q03HX008 (ip), vehicle: water) was 155 % of control, the T/C (dose: 0.78 mg/kg/injection, schedule: Q01DX009 (ip), vehicle: water) was 166 % of control and 211 % of control and the T/C (dose: 0.8 mg/kg/injection, schedule: Q01DX004 (ip), vehicle: saline) was 169 % of control. For the same compound, the T/C (dose: 1.0 mg/kg/injection, schedule: Q01DX001 (ip), vehicle: saline) was 154 % of control, the T/C (dose: 1.0 mg/kg/injection, schedule: Q01DX004 (ip), vehicle: saline) was 163 % of control and the T/C (dose: 1.0 mg/kg/injection, schedule: Q01DX009 (ip), vehicle: saline) was 179 % of control. For the same compound, the T/C (dose: 1.0 mg/kg/injection, schedule: Q03HX008 (ip), vehicle: water) was 180 % of control, the T/C (dose: 1.0 mg/kg/injection, schedule: Q06HX004 (ip), vehicle: water) was 200 % of control and the T/C (dose: 1.08 mg/kg/injection, schedule: Q01DX009 (ip), vehicle: saline) was 172 % of control and 210 % of control. For the same compound, the T/C (dose: 1.08 mg/kg/injection, schedule: Q03HX008 (ip), vehicle: water) was 180 % of control, the T/C (dose: 1.08 mg/kg/injection, schedule: Q04DX003 (ip), vehicle: water) was 156 % of control and the T/C (dose: 1.3 mg/kg/injection, schedule: Q01DX004 (ip), vehicle: saline with Tween-80) was 212 % of control. The T/C (dose: 1.3 mg/kg/injection, schedule: Q01DX004 (ip), vehicle: saline) was 191 % of control and 207 % of control, the T/C (dose: 1.3 mg/kg/injection, schedule: Q04DX003 (ip), vehicle: saline + alcohol) was 198 % of control and the T/C (dose: 1.3 mg/kg/injection, schedule: Q04DX003 (ip), vehicle: water) was 194 % of control and 203 % of control. For the same compound, the T/C (dose: 1.44 mg/kg/injection, schedule: Q04DX003 (ip), vehicle: saline) was 203 % of control, the T/C (dose: 1.5 mg/kg/injection, schedule: Q01DX001 (ip), vehicle: saline) was 185 % of control and the T/C (dose: 1.5 mg/kg/injection, schedule: Q04DX003 (ip), vehicle: water) was 221 % of control. The T/C (dose: 1.6 mg/kg/injection, schedule: Q01DX004 (ip), vehicle: saline) was 180 % of control, the T/C (dose: 1.73 mg/kg/injection, schedule: Q04DX003 (ip), vehicle: water) was 201 % of control and the T/C (dose: 1.8 mg/kg/injection, schedule: Q01DX009 (ip), vehicle: saline) was 210 % of control. For the same compound, the T/C (dose: 1.8 mg/kg/injection, schedule: Q03HX008 (ip), vehicle: water) was 216 % of control, the T/C (dose: 2.16 mg/kg/injection, schedule: Q01DX004 (ip), vehicle: saline with Tween-80) was 206 % of control and the T/C (dose: 2.16 mg/kg/injection, schedule: Q04DX003 (ip), vehicle: saline + alcohol) was 189 % of control. The T/C (dose: 2.16 mg/kg/injection, schedule: Q04DX003 (ip), vehicle: water) was 219 % of control and 155 % of control, the T/C (dose: 2.2 mg/kg/injection, schedule: Q04DX003 (ip), vehicle: saline) was 200 % of control and the T/C (dose: 2.4 mg/kg/injection, schedule: Q04DX003 (ip), vehicle: saline) was 210 % of control. For the same compound, the T/C (dose: 2.88 mg/kg/injection, schedule: Q04DX003 (ip), vehicle: water) was 201 % of control, the T/C (dose: 3.0 mg/kg/injection, schedule: Q01DX001 (ip), vehicle: saline) was 211 % of control and the T/C (dose: 3.0 mg/kg/injection, schedule: Q01DX009 (ip), vehicle: saline) was 170 % of control. The T/C (dose: 3.0 mg/kg/injection, schedule: Q04DX004 (ip), vehicle: saline) was 169 % of control, the T/C (dose: 3.6 mg/kg/injection, schedule: Q01DX001 (ip), vehicle: water) was 204 % of control and the T/C (dose: 3.6 mg/kg/injection, schedule: Q04DX003 (ip), vehicle: water) was 165 % of control. For the same compound, the T/C (dose: 4.0 mg/kg/injection, schedule: Q04DX004 (ip), vehicle: saline) was 197 % of control, the T/C (dose: 4.4 mg/kg/injection, schedule: Q01DX001 (ip), vehicle: saline) was 189 % of control and 221 % of control and the T/C (dose: 5.0 mg/kg/injection, schedule: Q04DX003 (iv), vehicle: saline) was 180 % of control. For the same compound, the T/C (dose: 5.0 mg/kg/injection, schedule: Q04DX003 (sc), vehicle: saline) was 165 % of control, the T/C (dose: 5.0 mg/kg/injection, schedule: Q04DX004 (ip), vehicle: saline) was 189 % of control and the T/C (dose: 6.0 mg/kg/injection, schedule: Q01DX001 (ip), vehicle: water) was 207 % of control. For the same compound, the T/C (dose: 6.0 mg/kg/injection, schedule: Q04DX003 (ip), vehicle: saline) was 185 % of control, the T/C (dose: 6.0 mg/kg/injection, schedule: Q04DX003 (ip), vehicle: water) was 162 % of control and the T/C (dose: 6.33 mg/kg/injection, schedule: Q01DX001 (ip), vehicle: water) was 169 % of control. For the same compound, the T/C (dose: 6.6 mg/kg/injection, schedule: Q01DX001 (iv), vehicle: saline) was 165 % of control and 168 % of control, the T/C (dose: 7.5 mg/kg/injection, schedule: Q01DX001 (ip), vehicle: saline) was 194 % of control and the T/C (dose: 8.44 mg/kg/injection, schedule: Q01DX001 (ip), vehicle: water) was 183 % of control. For the same compound, the T/C (dose: 9.4 mg/kg/injection, schedule: Q04DX003 (ip), vehicle: saline) was 201 % of control, the T/C (dose: 9.6 mg/kg/injection, schedule: Q04DX003 (ip), vehicle: saline) was 220 % of control and the T/C (dose: 10.0 mg/kg/injection, schedule: Q01DX001 (iv), vehicle: saline) was 197 % of control and 210 % of control. For the same compound, the T/C (dose: 10.0 mg/kg/injection, schedule: Q01DX001 (sc), vehicle: saline) was 175 % of control, the T/C (dose: 10.0 mg/kg/injection, schedule: Q04DX003 (ip), vehicle: water) was 87 % of control and the T/C (dose: 11.25 mg/kg/injection, schedule: Q01DX001 (ip), vehicle: water) was 189 % of control. For the same compound, the T/C (dose: 1440.0 micrograms/kg/injection, schedule: Q04DX003 (ip), vehicle: water) was 163 % of control, the T/C (dose: 2400.0 micrograms/kg/injection, schedule: Q04DX003 (ip), vehicle: water) was 163 % of control and the T/C (dose: 4000.0 micrograms/kg/injection, schedule: Q04DX003 (ip), vehicle: water) was 196 % of control.
